From paper PMC4336329 (PLoS ONE, 2015)
Hit rate of the full screen: of about 310,000 compounds, about 14,000 (4.5%) showed an effect of 50% or more. Effects have a minus sign here. Some of the results follow.

target: human ether-à-go-go-related gene (hERG) potassium channel (human, UniProt Q12809); assay: primary screen, population patch clamp on CHO cells stably expressing hERG
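Also: peak tail current of the secondary pulse compared with the same well before compound.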

Chain of human ether-à-go-go-related gene (hERG) potassium channel (Q12809 whole entry, looked up): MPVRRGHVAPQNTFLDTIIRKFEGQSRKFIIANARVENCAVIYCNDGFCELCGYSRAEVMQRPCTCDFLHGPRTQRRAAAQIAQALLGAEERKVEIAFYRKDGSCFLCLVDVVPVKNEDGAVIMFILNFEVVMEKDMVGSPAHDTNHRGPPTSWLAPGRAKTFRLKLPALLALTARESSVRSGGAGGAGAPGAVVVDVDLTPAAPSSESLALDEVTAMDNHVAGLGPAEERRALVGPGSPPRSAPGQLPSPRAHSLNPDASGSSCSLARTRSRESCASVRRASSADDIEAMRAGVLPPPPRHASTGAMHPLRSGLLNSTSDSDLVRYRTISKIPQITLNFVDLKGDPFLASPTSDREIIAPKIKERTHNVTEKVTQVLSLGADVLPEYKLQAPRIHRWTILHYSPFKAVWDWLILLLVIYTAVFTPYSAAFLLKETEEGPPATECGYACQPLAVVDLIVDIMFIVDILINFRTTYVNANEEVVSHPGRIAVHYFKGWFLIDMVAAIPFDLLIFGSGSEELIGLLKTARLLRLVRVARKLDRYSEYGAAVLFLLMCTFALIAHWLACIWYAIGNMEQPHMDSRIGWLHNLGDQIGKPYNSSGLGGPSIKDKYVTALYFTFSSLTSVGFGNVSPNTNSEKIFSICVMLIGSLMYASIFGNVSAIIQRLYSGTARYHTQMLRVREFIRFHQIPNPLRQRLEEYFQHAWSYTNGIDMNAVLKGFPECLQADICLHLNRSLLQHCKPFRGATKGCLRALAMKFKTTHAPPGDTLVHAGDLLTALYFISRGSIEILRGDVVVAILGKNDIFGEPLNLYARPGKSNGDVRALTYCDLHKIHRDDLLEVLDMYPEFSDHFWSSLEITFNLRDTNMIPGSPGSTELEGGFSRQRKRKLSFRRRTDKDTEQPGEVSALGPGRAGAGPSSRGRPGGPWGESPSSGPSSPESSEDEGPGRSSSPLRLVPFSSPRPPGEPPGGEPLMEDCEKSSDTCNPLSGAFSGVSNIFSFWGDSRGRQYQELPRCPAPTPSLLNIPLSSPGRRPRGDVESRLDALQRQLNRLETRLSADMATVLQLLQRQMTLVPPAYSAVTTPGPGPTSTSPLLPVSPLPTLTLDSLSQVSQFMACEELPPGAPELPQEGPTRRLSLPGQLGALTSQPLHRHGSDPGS

SMILES	hERG current change (%, negative = inhibition) at 10uM [%]
COc1ccc(O)c(-c2[nH]ncc2C(=O)c2cccc(C)c2)c1	10
O=[N+]([O-])c1ccc(O)c(N=Cc2sc3ccccc3c2O)c1	6.16
CCOc1c(Cl)cc(/C=N/O)cc1OC	4.13
COc1ccc(N(CC(=O)Nc2cccc(C(C)=O)c2)S(=O)(=O)c2ccc(NC(C)=O)cc2)cc1	-2.7
CCOC(=O)CCC(NC(=O)c1ccccc1C(=O)NC(CCC(=O)OCC)C(=O)OCC)C(=O)OCC (stereo not shown)	-21.8
CCCCCn1c(SCCc2ccccc2)nc2c1c(=O)[nH]c(=O)n2C	-17.4
C/C(=N/OC(=O)c1c(-c2c(F)cccc2Cl)noc1C)c1cnccn1	-9.96
CC(=O)N(CC(=O)Nc1sc(C)c(C)c1C(N)=O)Cc1ccccc1	-1.81
COc1ccc(N2CC(C(=O)OC(C)C(=O)c3ccccc3)CC2=O)cc1 (stereo not shown)	4.12
CS(=O)(=O)N(CC(=O)NCc1ccncc1)C1CCCCC1	1.91
Brc1ccccc1/C=N/Nc1ccccn1	28.1
O=C(Cc1ccc(S(=O)(=O)N2CCOCC2)s1)N1CCN(S(=O)(=O)c2cccc([N+](=O)[O-])c2)CC1	-27.1
O=P(C(c1ccc2c(c1)OCO2)N1CCOCC1)(N1CCOCC1)N1CCOCC1 (stereo not shown)	4.64
O=C(CSc1oc(-c2ccccc2)nc1S(=O)(=O)c1ccccc1)NCC1CCCO1 (stereo not shown)	2.1
Fc1ccc(C2=NN(c3ccccc3)C(c3ccco3)C2)cc1 (stereo not shown)	2.64
COc1ccc(N2CCN(C(=O)c3cc4c(-c5ccc(Cl)cc5)nn(C)c4s3)CC2)cc1	-14.8
CC[C@@H](C)[C@H](NC(=O)Cc1c(C)c2c(cc(C)c3c(C)coc32)oc1=O)C(=O)O	12
Cc1ccc(S(=O)(=O)c2c(N)n(-c3ccccc3)c3nc4ccccc4nc23)cc1	7.23
Cc1ccc(NC(=O)CN2C(=O)NC3(CCC(C)CC3)C2=O)c(Cl)c1 (stereo not shown)	11.1
CCCCCCSc1ccc([C@H]2N[C@@](CC(C)C)(C(=O)OC)[C@H]3C(=O)N(C)C(=O)[C@@H]23)cc1OC.O=C(O)C(F)(F)F	-43.9
CCOc1ccc2c(c1)-c1c(ssc1=S)C(C)(C)N2C(=O)c1ccco1	18.3
CCC(C(=O)Nc1ncccn1)(C(F)(F)F)C(F)(F)F	4.41

SMILES	hERG current change (%, negative = inhibition) at 10uM [%]
COc1ccc(NC(=O)N2CCCCC2)cc1	-9.7
Cn1cc(CN2CCN(Cc3cccnc3)CC2)c(-c2ccc3c(c2)OCCO3)n1	-27.1
CCOC(=O)C1=C(C)NC(=O)NC1c1ccc(-c2ccc(Cl)cc2)o1 (stereo not shown)	16.1
CCc1c(C(=O)Nc2ccccc2C(N)=O)csc1C	12.7
Cc1ccc(NC(=O)C(=O)NCCN2CCN(S(C)(=O)=O)CC2)cc1	19.6
CCNc1nc(NC(C)C)nc(Nn2cnnc2)n1	9.05
CC(C)n1c(SCC(=O)NCc2ccco2)nnc1C1CC1	20.2
COC(=O)c1ccc(OC(=O)CN2C(=O)c3ccccc3C2=O)cc1	18.1
COc1ccc(C(=O)Nc2ccc(N3CCCC3)cc2)cc1Br	6.19
COc1cc(O)oc1C=Nc1ccc(C(=O)O)cc1	18.2
S=c1[nH]nc(NCCc2ccccc2)s1	19.3
Cn1c(=O)[nH]c(=O)c2c1nc(SCC(=O)Nc1ccccc1)n2Cc1ccccc1	-25.5
CC1(C)C(C(=O)N2CCN(c3ccc(Cl)cc3)CC2)C1(C)C	-9.39
COc1ccc(C(=O)C2CCCN(Cc3ccc4c(c3)OCCO4)C2)cc1F (stereo not shown)	-74.7
COc1cccc(N2CCN(C(=O)c3nc4nc(C)cc(C)n4n3)CC2)c1	7.28
COC(=O)[C@@H]1C[C@@]2(O)[C@H](O)[C@H](O)[C@H](O)C[C@H]2N1Cc1ccc(C(F)(F)F)cc1	13.2
CC(=O)Nc1ccc(C(=O)NC(CC(=O)O)c2ccc(Cl)cc2)cc1 (stereo not shown)	1.62
CNc1ccc(/C=C2\CSc3ccccc3C2=O)cc1[N+](=O)[O-]	14.1
CC(=O)N1CCc2cc(S(=O)(=O)NCCCN3CCCCC3)ccc21	22.9
COc1nc(N2CCCCCC2)nc(N2CCCCCC2)n1	-2.28
COc1ccc(CC(=O)OC(C)C(=O)Nc2ccc(S(N)(=O)=O)cc2)cc1 (stereo not shown)	2.59
